# Measurements reported in PubChem BioAssay AID624202 (National Center for Advancing Translational Sciences (NCATS), 2012).
# In all, about 380,000 compounds went through this assay and about 4,000 (1.1%) were called active. This list was built around the results that the source calls inconclusive (neither active nor inactive); the mix of calls is not that of the screen. The call rests on the fitted dose curve; in most records, active means well fitted activation curve with a large enough effect; inconclusive means small, poorly fitted or top-dose-only effect; inactive means no such curve, though single readings can be large or run the other way. Where the call is inconclusive, the potency comes from a doubtful curve fit.
# Assay: qHTS Assay to Identify Small Molecule Activators of BRCA1 Expression; further: nearly all actives have a fitted effect of over 80% in size
# Conditions: MCF7-BRCA1-FFLuc reporter, luminescence, 48 h; activation: at 46.1 µM (top of the series), scaled: vehicle 0%, 10 µM genistein 100% unless noted
# In short: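 48 h compound treatment of MCF7-BRCA1-FFLuc cells (phenol-red free MEM, 37 °C), then 15 min with luciferase substrate and luminescence imaging.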
# Potency means the concentration at half of the fitted maximal effect; tags describe the fitted curve by direction and shape.
SMILES,Potency,activation
c1ccc(CSc2ncnc3c2ncn3C2CCCCO2)cc1 (stereo not given),"inconclusive: 2.51 µM [activator, full curve, poor fit]",
COc1ccc(C2=NCN(c3ccc(C)cc3)C(=S)N2)cc1,active: 3.98 µM,
Cn1c(-c2ccc(C(=O)c3ccccc3)s2)nc2ccccc21,,inconclusive: 81.5% [activator]
COc1cc(/C=C/c2noc(-c3ccccc3O)n2)ccc1OC(C)=O,"inconclusive: 2.51 µM [activator, full curve, poor fit]",
Cc1ccc(/C=N/Nc2ccc(Cl)c(C(=O)O)c2)s1,,inconclusive: -23.4% [activator]
O=c1nc2sc3ccccc3n2c(=O)n1-c1cccc(Cl)c1,"inconclusive: 3.16 µM [activator, partial curve, poor fit]",
COc1ccc(-c2noc(-c3ccoc3C)n2)cc1OC,active: 4.47 µM,
Cc1ccc(/C=N/NC(=O)c2c[nH]c3ccccc23)s1,"inconclusive: 10 µM [activator, partial curve, poor fit]",
COc1cccc(NC(=O)CNC(=O)c2ccc(F)cc2)c1,,inconclusive: 62.2% [activator]
Cc1cccnc1NC(=O)Nc1cccc(F)c1,"inconclusive: 3.55 µM [activator, partial curve, poor fit]",
CSc1ccccc1NC(=O)c1cnc2sc(C)cn2c1=O,"inconclusive: 2.51 µM [activator, partial curve, poor fit]",
CC(C)OC(=O)Cc1nc2sc(-c3ccccc3)cc2c(=O)[nH]1,"inconclusive: 6.31 µM [activator, partial curve, poor fit]",
C=CCn1c(SCc2nc3ccccc3c(=O)[nH]2)nc2scc(C3CC3)c2c1=O,inactive,
Cc1ccc(O)c(NC(=S)NC(=O)/C=C/c2ccco2)c1,inactive,
COC(=O)c1ccc(NC(=O)Cc2ccc(F)cc2)cc1,inactive,
c1ccc(-c2nc3ccccc3[nH]2)nc1,"inconclusive: 2.82 µM [activator, full curve, poor fit]",
CCOC(=O)c1c(C)[nH]c(C=Nc2ccc(OC)cc2)c1O,active: 6.31 µM,
O=C(OCC(=O)N1CCCCC1)c1cc(=O)[nH]c2ccccc12,"inconclusive: 10 µM [activator, partial curve, poor fit]",
COc1ccc(C(=O)Nc2cc(C)c(NC(=O)c3ccccc3OC)cn2)cc1,"inconclusive: 11.2 µM [activator, partial curve, poor fit]",
OCc1cn(-c2ccccc2)nc1-c1ccco1,"inconclusive: 12.6 µM [activator, single point]",
